Test results taken from the antibiotic and cytotoxicity screens of Wong et al. (2023).
The other results are listed elsewhere or left out.

What follows are molecules tested on HSkMC (human skeletal muscle cells) (assay: cytotoxicity call (relative viability < 0.9)). Conditions: 10 µM.

Compound | cytotoxicity call
C[C@@H]1CCCCO[C@H](CN(C)C(=O)Cc2ccccc2)[C@@H](C)CN([C@@H](C)CO)C(=O)c2cc(NC(=O)CCC(F)(F)F)ccc2O1 | inactive
C[C@H]1CN([C@@H](C)CO)C(=O)c2cccc(NS(=O)(=O)c3ccc(Cl)cc3)c2O[C@H]1CN(C)Cc1ccc(Cl)c(Cl)c1 | inactive
C[C@@H]1CCCCO[C@H](CN(C)C(=O)NC2CCCCC2)[C@@H](C)CN([C@H](C)CO)C(=O)c2cc(NS(=O)(=O)c3ccc(Cl)cc3)ccc2O1 | inactive
Cc1noc(C)c1S(=O)(=O)N(C)C[C@H]1Oc2ccc(NC(=O)CCN3CCOCC3)cc2C(=O)N([C@@H](C)CO)C[C@H]1C | inactive
C[C@@H]1CN([C@H](C)CO[Si](C)(C)C(C)(C)C)C(=O)c2cc(NC(=O)Nc3ccccc3)ccc2O[C@@H](C)CCCCO[C@H]1CN(C)S(=O)(=O)c1ccc(F)cc1 | inactive
C[C@@H]1CCCCO[C@@H](CN(C)C(=O)Nc2ccc3c(c2)OCO3)[C@@H](C)CN([C@@H](C)CO)C(=O)c2cc(NC(=O)CCC(F)(F)F)ccc2O1 | inactive
C[C@@H]1CN([C@@H](C)CO)C(=O)c2cc(NC(=O)c3ccncc3)ccc2O[C@@H](C)CCCCO[C@H]1CN(C)C(=O)Nc1ccc2c(c1)OCO2 | inactive
COc1cccc(S(=O)(=O)Nc2ccc3c(c2)[C@@H]2C[C@@H](CC(=O)NCCc4ccccc4)O[C@H](CO)[C@@H]2O3)c1 | inactive
COCCNC(=O)C[C@@H]1C[C@@H]2c3cc(NC(=O)COC)ccc3O[C@@H]2[C@@H](CO)O1 | inactive
CN(C)CCCNC(=O)[C@@H]1c2ccccc2C(=O)N(Cc2cc(C(F)(F)F)cc(C(F)(F)F)c2)[C@H]1c1ccc(CO)cc1 | inactive
CC(CN(C)C)CN1c2ccccc2CCc2ccccc21.O=C(O)C=CC(=O)O (stereo not given) | inactive
COc1cccc(-c2ccc3c(c2)O[C@@H](CN(C)C(=O)C2CCOCC2)[C@@H](C)CN([C@H](C)CO)S3(=O)=O)c1 | inactive
Cc1cc(NC(=O)C2=C(O)c3ccccc3S(=O)(=O)N2C)no1 | inactive
C[C@@H]1CN([C@@H](C)CO)C(=O)c2cc(NC(=O)c3ccncc3)ccc2O[C@@H]1CN(C)S(=O)(=O)c1cn(C)cn1 | inactive
NCc1ccccc1CN1CCOCC1 | inactive
Cc1ccc(S(=O)(=O)Nc2ccc3c(c2)C(=O)N([C@@H](C)CO)C[C@@H](C)[C@H](CN(C)S(=O)(=O)c2ccc(Cl)cc2)OCCCC[C@@H](C)O3)cc1 | inactive
Cc1noc(C)c1NC(=O)N(C)C[C@@H]1Oc2ccc(NS(=O)(=O)c3cccs3)cc2CC(=O)N([C@@H](C)CO)C[C@@H]1C | inactive
C[C@H](CO)N1C[C@H](C)[C@H](CN(C)Cc2ccc(C(=O)O)cc2)Oc2ccc(NC(=O)CCN3CCOCC3)cc2C1=O | inactive
COc1ccc(CN(C)C[C@H]2Oc3c(NC(=O)c4ccc(-c5nccs5)cc4)cccc3C(=O)N([C@H](C)CO)C[C@@H]2C)cc1 | inactive
CN1CCN(c2c(F)cc3c(=O)c(C(=O)O)cn4c3c2SCC4)CC1 | inactive

Compound | cytotoxicity call
C[C@H](CO)N1C[C@H](C)[C@@H](CN(C)C(=O)Cc2ccccc2)OCCCC[C@H](C)Oc2ccc(NC(=O)CCC(F)(F)F)cc2C1=O | inactive
Cc1ccc(-n2nnc(C(N)=O)c2C)cc1 | inactive
CC(=O)OCC(=O)C1(O)CCC2C3CCC4=CC(=O)C=CC4(C)C3C(O)CC21C (stereo not given) | inactive
Cc1cc(C(=O)Nc2cccc3c2O[C@H](CN(C)C(=O)NC(C)C)[C@@H](C)CN([C@H](C)CO)C3=O)n(C)n1 | inactive
CN1CCN(C(=O)Cn2cc(-c3ccc(C(=O)NO)cc3)nn2)CC1 | inactive
Cc1ccc(S(=O)(=O)N(C)C[C@H]2OCCCC[C@H](C)Oc3ccc(NS(C)(=O)=O)cc3C(=O)N([C@H](C)CO)C[C@H]2C)cc1 | inactive
COc1ccc(NC(=O)N(C)C[C@H]2Oc3ncc(C#CCN(C)C)cc3C(=O)N([C@H](C)CO)C[C@H]2C)cc1 | inactive
C=CCC(N)(CC=C)c1ccc(C)cc1 | inactive
C[C@@H]1CCCCO[C@H](CN(C)S(=O)(=O)c2ccc(F)cc2)[C@@H](C)CN([C@@H](C)CO)C(=O)c2cc(NC(=O)Nc3ccc(C(F)(F)F)cc3)ccc2O1 | inactive
COC(=O)c1c(CC[C@@H](CO)NC(=O)N[C@@H](C)Cn2cc(C3(O)CCCC3)nn2)oc(C(C)=O)c1C(=O)OC | inactive
CCOC(=O)N(C)C[C@H]1OCc2cnnn2CCCC(=O)N([C@@H](C)CO)C[C@@H]1C | inactive
O=C1CO[C@H]2CN(C(=O)COc3ccccc3)C[C@@H]2N1 | inactive
C[C@H]1CCCCO[C@@H](CN(C)C(=O)Nc2ccc(F)cc2)[C@@H](C)CN([C@@H](C)CO)C(=O)c2cc(NC(=O)C3CCCCC3)ccc2O1 | inactive
Oc1c(Cl)cc(Cl)cc1Sc1cc(Cl)cc(Cl)c1O | active
COc1ccccc1-c1cnc2c(c1)C(=O)N([C@@H](C)CO)C[C@@H](C)[C@@H](CN(C)C(=O)c1cccnc1)O2 | inactive
C[C@H]1CN([C@@H](C)CO)C(=O)c2cc(NC(=O)CCCN(C)C)ccc2O[C@@H]1CN(C)S(=O)(=O)c1ccccc1 | inactive
Nc1ncnc2c1ncn2[C@@H]1O[C@H](CO)C[C@H]1O | inactive
Cc1cc(C(=O)Nc2cccc3c2O[C@@H](CN(C)S(=O)(=O)c2ccccc2)[C@H](C)CN([C@@H](C)CO)C3=O)n(C)n1 | inactive
COC(=O)[C@H](Cc1ccccc1)N1CC2=C[C@@H](C3CC3)n3c(=O)n(C)c(=O)n3[C@H]2[C@@H]1[C@@H](O)CCn1cc(C(=O)NO)nn1 | inactive
C[C@@H]1CCCCO[C@@H](CN(C)S(C)(=O)=O)[C@H](C)CN([C@H](C)CO)C(=O)c2cc(NC(=O)Nc3cccc4ccccc34)ccc2O1 | inactive
